Hit rate of the full screen: of about 39,000 compounds, about 220 (0.56%) showed activity. The list shows a part of the results.
test system: Escherichia coli K-12 BW25113; assay: relative growth (OD600 normalised to plate interquartile mean) (fraction); higher = less growth inhibition, active = 0.2 or less; conditions: 50 µM; LB; incubation time: overnight (16-24 h)
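Note: static incubation at 37 °C against the wild-type strain, values averaged over two biological replicates.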

| SMILES | relative growth |
| --- | --- |
| COc1ccc(NC(=O)Nc2ccc3c(c2)C(=O)N([C@@H](C)CO)C[C@@H](C)[C@@H](CN(C)C(=O)NC2CCCCC2)OCCCC[C@H](C)O3)cc1 | inactive: 1.03 |
| COc1ccccc1C(=O)Nc1ccc2c(c1)C(=O)N(C)[C@H]1CC[C@@H](CC(=O)NCc3ccc(Cl)c(Cl)c3)O[C@@H]1CO2 | inactive: 1.03 |
| CCOc1nc2ccccc2c(=O)n1CCO | inactive: 0.962 |
| COc1ccc(S(=O)(=O)N(C)C[C@@H]2Oc3c(NC(=O)NC(C)C)cccc3C(=O)N([C@H](C)CO)C[C@H]2C)cc1 | inactive: 0.981 |
| OCc1ccccc1O[C@@H]1O[C@H](CO)[C@@H](O)[C@H](O)[C@H]1O | inactive: 0.985 |
| C[C@H](CO)N1C[C@H](C)[C@H](CN(C)S(=O)(=O)c2ccc(F)cc2)Oc2ccc(NS(=O)(=O)c3ccc(F)cc3)cc2CC1=O | inactive: 1.01 |
| CCCCC1C(=O)N(c2ccccc2)N(c2ccc(O)cc2)C1=O (centres undefined) | inactive: 0.866 |
| C[C@@H]1CN([C@H](C)CO)C(=O)c2cc(C#CC3(O)CCCC3)cnc2O[C@@H]1CN(C)C(=O)Cc1cccnc1 | inactive: 0.98 |
| C[C@@H]1CN([C@@H](C)CO)C(=O)c2cc(Br)cnc2O[C@H]1CN(C)Cc1ccc2c(c1)OCO2 | inactive: 0.997 |
| O=C(C[C@H]1C[C@H]2c3cc(NC(=O)c4ccc5c(c4)OCO5)ccc3O[C@H]2[C@@H](CO)O1)NCCN1CCCCC1 | inactive: 1.01 |
| C=CCOC(=O)[C@@H]1[C@H]2C(=O)O[C@H](c3ccccc3)[C@H](c3ccccc3)N2[C@H](c2ccc(OCCOC(=O)[C@H]3C[C@H]4C(=O)N[C@@H](CCCC[N+](C)(C)C)C(=O)N4[C@H]3c3cccc(OCCO)c3)cc2)[C@@]12C(=O)Nc1ccc(I)cc12 | inactive: 1.08 |
| O=C(CCBr)N1CCN(C(=O)CCBr)CC1 | inactive: 0.981 |
| NCCCCCCNC(=O)[C@@H]1C[C@@H]2C(=O)N[C@@H](CCCCN)C(=O)N2[C@@H]1c1cccc(OCCO)c1 | inactive: 0.995 |
| C[C@@H]1CCCCO[C@H](CN(C)Cc2ccc(C(F)(F)F)cc2)[C@@H](C)CN([C@@H](C)CO)C(=O)c2cc(NC(=O)Nc3ccc(C(F)(F)F)cc3)ccc2O1 | inactive: 1.02 |
| C[C@H](CO)N1C[C@H](C)[C@H](CN(C)S(=O)(=O)c2ccccc2)OCCCC[C@H](C)Oc2ccc(NC(=O)NC3CCCCC3)cc2C1=O | inactive: 1.01 |
| COc1ccc(NC(=O)Nc2cccc3c2O[C@H](CN(C)Cc2ccc(Oc4ccccc4)cc2)[C@@H](C)CN([C@H](C)CO)C3=O)cc1 | inactive: 0.99 |
| Cl.Fc1ccc(C2CCNCC2COc2ccc3c(c2)OCO3)cc1 (centres undefined) | inactive: 0.844 |
| C[C@H](CO)N1C[C@H](C)[C@@H](CN(C)S(=O)(=O)c2cn(C)cn2)Oc2ccc(NC(=O)Cc3ccccc3)cc2CC1=O | inactive: 1.01 |
| COc1ccc(OC)c([C@@H](O)CNC(=O)CN)c1 | inactive: 0.878 |
| C[C@@H](O)C#Cc1ccc2c(c1)O[C@@H](CN(C)C(=O)Nc1ccccc1)[C@@H](C)CN([C@@H](C)CO)S2(=O)=O | inactive: 0.989 |

| SMILES | relative growth |
| --- | --- |
| C[C@H]1CN([C@@H](C)CO)C(=O)c2cc(NC(=O)Cn3cnnn3)ccc2O[C@H]1CN(C)Cc1ccc(Oc2ccccc2)cc1 | inactive: 1.01 |
| O[C@H]([C@H](O)[C@@H]1CO1)[C@H]1CO1 | inactive: 0.797 |
| COc1ccc(S(=O)(=O)Nc2ccc3c(c2)C(=O)N([C@@H](C)CO)C[C@@H](C)[C@H](CN(C)C(=O)Nc2c(C)noc2C)OCCCC[C@@H](C)O3)cc1 | inactive: 1 |
| C[C@@H]1CN([C@@H](C)CO)C(=O)Cc2cc(NC(=O)CCCCCC(=O)Nc3ccccc3N)ccc2O[C@@H]1CN(C)S(=O)(=O)c1cn(C)cn1 | inactive: 0.982 |
| COc1cc(OC)c2ccc(=O)oc2c1 | inactive: 1.05 |
| C[C@H]1CN([C@@H](C)CO)C(=O)c2cc(/C=C/c3ccccc3)cnc2O[C@H]1CN(C)C(=O)CN1CCOCC1 | inactive: 1.01 |
| C[C@H](CO)N1C[C@H](C)[C@@H](CN(C)C(=O)Nc2ccc(F)cc2)Oc2c(NC(=O)c3nc4ccccc4s3)cccc2C1=O | inactive: 0.988 |
| COc1ccc(S(=O)(=O)Nc2ccc3c(c2)C(=O)N([C@@H](C)CO)C[C@H](C)[C@@H](CN(C)S(=O)(=O)c2cccs2)O3)cc1 | inactive: 0.86 |
| C[C@@H]1CN([C@H](C)CO)C(=O)c2cc(NC(=O)Nc3cccc4ccccc34)ccc2O[C@@H](C)CCCCO[C@H]1CN(C)Cc1ccc2c(c1)OCO2 | inactive: 0.992 |
| C[C@H](CO)N1C[C@H](C)[C@H](CN(C)Cc2ccc(Oc3ccccc3)cc2)Oc2ccc(NC(=O)NC3CCCCC3)cc2C1=O | inactive: 0.972 |
| C[C@H]1CN([C@@H](C)CO)C(=O)c2cccc(NC(=O)NC3CCCCC3)c2O[C@H]1CN(C)Cc1ccc(Cl)c(Cl)c1 | inactive: 0.953 |
| O=C(O)c1ccncc1 | inactive: 0.986 |
| C[C@@H]1CN([C@H](C)CO)S(=O)(=O)c2ccc(-c3cccnc3)cc2O[C@H]1CN(C)C(=O)NC1CCCCC1 | inactive: 0.997 |
| Cc1noc(C)c1S(=O)(=O)N(C)C[C@@H]1Oc2ccc(NC(=O)Nc3ccccc3)cc2CC(=O)N([C@H](C)CO)C[C@@H]1C | inactive: 1 |
| O=C(C[C@@H]1C[C@H]2c3cc(NS(=O)(=O)c4ccc(F)cc4)ccc3O[C@H]2[C@H](CO)O1)NCc1ccncc1 | inactive: 0.999 |
| C[C@H]1CN([C@@H](C)CO)C(=O)c2cc(NC(=O)CCCN(C)C)ccc2O[C@@H]1CN(C)C(=O)Nc1ccccc1 | inactive: 1.01 |
| COc1ccc(NC(=O)Nc2ccc3c(c2)C(=O)N([C@H](C)CO)C[C@@H](C)[C@@H](CN(C)Cc2ccncc2)OCCCC[C@@H](C)O3)cc1 | inactive: 1.02 |
| COCCOC(=O)N1C(=O)[C@@]2(c3ccccc31)[C@H](C(=O)N1CCc3cc(OC)c(OC)cc3C1)[C@H]1C(=O)O[C@H](c3ccccc3)[C@H](c3ccccc3)N1[C@@H]2c1ccc(O)cc1 | inactive: 1.02 |
| C[C@H]1CN([C@@H](C)CO)C(=O)Cc2cc(NC(=O)CCC(F)(F)F)ccc2O[C@H]1CN(C)Cc1ccc(Oc2ccccc2)cc1 | inactive: 0.932 |
| CC1C=CC=CC=CC=CC=CC=CC=CC(OC2OC(C)C(O)C(N)C2O)CC2OC(O)(CC(O)CC(O)C(O)CCC(O)CC(O)CC(=O)OC(C)C(C)C1O)CC(O)C2C(=O)O (centres undefined) | inactive: 1.02 |

| SMILES | relative growth |
| --- | --- |
| C[C@@H]1CCCCO[C@H](CN(C)C(=O)Nc2ccc(F)cc2)[C@@H](C)CN([C@@H](C)CO)C(=O)c2cc(NC(=O)c3ccccc3)ccc2O1 | inactive: 1.01 |
| Cc1noc(C)c1NC(=O)N(C)C[C@@H]1OCCCC[C@H](C)Oc2ccc(NC(=O)Nc3cccc4ccccc34)cc2C(=O)N([C@H](C)CO)C[C@@H]1C | inactive: 1.03 |
| C[C@H](CO)N1C[C@H](C)[C@H](CN(C)C(=O)Nc2ccc(C(F)(F)F)cc2)Oc2ccc(NC(=O)Nc3ccccc3)cc2C1=O | inactive: 1.02 |
| Cc1noc(C)c1NC(=O)Nc1ccc2c(c1)C(=O)N([C@H](C)CO)C[C@@H](C)[C@@H](CN(C)C(=O)Nc1c(C)noc1C)OCCCC[C@@H](C)O2 | inactive: 1.02 |
| C[C@@H]1CN([C@@H](C)CO)C(=O)c2cccc(NS(=O)(=O)c3ccc(Cl)cc3)c2O[C@H]1CN(C)C(=O)Nc1cccc2ccccc12 | inactive: 0.967 |
| C[C@@H]1CCCCO[C@H](CN(C)C(=O)c2ccccc2)[C@@H](C)CN([C@@H](C)CO)C(=O)c2cc(NC(=O)c3ccccc3)ccc2O1 | inactive: 0.948 |
| CC(C)N1C[C@H](C)[C@@H](CN(C)Cc2cccc(Cl)c2)Oc2c(NC(=O)c3ccncc3)cccc2C1=O | inactive: 1.04 |
| C[C@@H]1CCCCO[C@@H](CN(C)C(=O)c2ccncc2)[C@@H](C)CN([C@H](C)CO)C(=O)c2cc(NC(=O)C3CCCCC3)ccc2O1 | inactive: 1.02 |
| CCOC(=O)c1c[nH][nH]c1=O | inactive: 1 |
| C[C@@H]1CN([C@@H](C)CO)C(=O)c2cc(NC(=O)CCN3CCOCC3)ccc2O[C@H]1CN(C)S(C)(=O)=O | inactive: 0.997 |
| COC(=O)CCCCCCC(=O)Nc1ccc(NC(=O)CCCC[P+](c2ccccc2)(c2ccccc2)c2ccccc2)cc1 | inactive: 0.979 |
| C[C@@H]1CN([C@@H](C)CO)C(=O)c2cc(NC(=O)CCC(F)(F)F)ccc2O[C@@H](C)CCCCO[C@H]1CN(C)Cc1ccccc1 | inactive: 0.983 |
| CCOC(=O)c1c(C)cc(OC)cc1O | inactive: 0.917 |
| Cc1noc(C)c1NC(=O)N(C)C[C@@H]1Oc2c(NC(=O)C3CCOCC3)cccc2C(=O)N([C@H](C)CO)C[C@@H]1C | inactive: 0.998 |
| Cc1cccc(S(=O)(=O)N2C[C@H](O)COC[C@@H]3O[C@@H](CC(=O)N4CCN(C)CC4)CC[C@H]32)c1 | inactive: 0.979 |
| C[C@H]1CN([C@@H](C)CO)C(=O)Cc2cc(NC(=O)Cn3cnnn3)ccc2O[C@@H]1CN(C)Cc1ccc(Oc2ccccc2)cc1 | inactive: 0.955 |
| C[C@@H]1CN([C@@H](C)CO)C(=O)c2cc(NC(=O)Nc3ccccc3)ccc2O[C@@H](C)CCCCO[C@@H]1CN(C)C(=O)C1CCCCC1 | inactive: 0.972 |
| COc1cccc(NC(=O)N(C)C[C@H]2Oc3cc(C#Cc4ccncc4)ccc3S(=O)(=O)N([C@H](C)CO)C[C@H]2C)c1 | inactive: 0.985 |
| C[C@@H]1CCCCO[C@@H](CN(C)S(=O)(=O)c2ccc(Cl)cc2)[C@@H](C)CN([C@@H](C)CO)C(=O)c2cc(NS(=O)(=O)c3ccccc3)ccc2O1 | inactive: 1.03 |

Reference: the supplement of paper PMC9446081
